Results published in PubChem BioAssay AID445 (National Center for Advancing Translational Sciences (NCATS), 2006).
Screen size: about 110,000 compounds; about 40 (0.04%) were called active. This list was built around the results that the source calls inconclusive (neither active nor inactive); the mix of calls is not that of the screen. The call rests on the fitted dose curve; in most records, active means well fitted curve in the direction sought with a large enough effect in the signal ratio (not every such curve was filed as active); inconclusive means small, poorly fitted or top-dose-only effect, or a change in a side signal; inactive means flat fitted curve, though single readings scatter; the % refers to the signal ratio. Potencies of inconclusive entries are doubtful fits and often do not repeat.

experiment: IkB Signaling; details: ABC-DLBCL IkBa-CBG/CBR dual luciferase ratio (green luciferase fused to IkBa over red control in OCI-Ly3 lymphoma cells), 4 h; IkBa stabilization activation: at 57.1 µM (top of the series), scaled: untreated 0%, proteasome inhibitor 100% unless noted;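 on IkBa stabilization activation: 0% = basal untreated cells and 100% = reference inhibitor full response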
In short: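 Luminescence ratio of IκBα-fused green versus native red beetle luciferase in OCI-Ly3 cells, 4 h post-doxycycline with compound; red signal alone, scaled from basal (0%) to zero light (-100%), flagged nonspecific or cytotoxic effects.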
Potency means the concentration at half of the fitted maximal effect.

SMILES | IkBa stabilization activation | Potency
O=C(CSc1nnc(-c2cc3ccccc3cc2O)n1Cc1ccco1)c1ccc(F)cc1 | inconclusive: 5.88% [signal inhibitor] | –
COc1cccc(NC(=O)CSc2nc3ccccc3n2C)c1 | inconclusive: 6.21% [signal inhibitor] | –
Cc1ncoc1C(=O)Nc1ccccc1C(N)=O | inactive | –
CCN(CC)c1ccc2cc(NC(=O)CCC(=O)O)c(=O)oc2c1 | – | inconclusive: 5.01 µM [signal inhibitor, partial curve]
COc1ccc(OC)c(CCNC(=O)c2c(C)nn(-c3ccc(F)cc3)c2-n2cccc2)c1 | inconclusive: -1.11% [signal inhibitor] | –
Cc1ccc(-c2cc(C(F)(F)F)n3ncc(C(=O)N4CCN(C)CC4)c3n2)cc1 | inactive | –
Cc1ccc(NC(=O)Cn2c(=O)n(Cc3ccco3)c(=O)c3ccc(C(=O)NC4CCCC4)cc32)c(C)c1 | inactive | –
Cc1nnc(N2CCC(C(=O)NC3CCCCC3)CC2)c2nn(-c3ccc(Cl)cc3)c(C)c12 | inconclusive: 1.76% [signal inhibitor] | –
COc1ccc(C)cc1Nc1nc2cc(Cl)c(Cl)cc2nc1-n1nc(C)cc1C | inconclusive: 5.52% [signal inhibitor] | –
COc1ccc(C)cc1NC(=O)CSc1nc(=O)n(Cc2ccncc2)c2c1CCC2 | inconclusive: 15.7% [signal inhibitor] | –
CC(C)C[C@@H](CC(=O)N[C@@H](CCCN)CC(=O)N[C@@H]1CCCC[C@H]1C(=O)N[C@H](CC(=O)N[C@@H](CCC(=O)O)CC(=O)O)Cc1ccccc1)NC(=O)[C@@H]1CCCC[C@H]1N | inactive | –
COc1ccc(C)cc1NC(=O)NCc1ccc2c(c1)CCN2C(=O)c1ccccc1 | inconclusive: 4.55% [signal inhibitor] | –
COc1ccc(C(=O)NCCc2sc(-c3ccc(Cl)cc3)nc2C)c(OC)c1 | inconclusive: 8.58% [signal inhibitor] | –
O=C1OCCC1Sc1nnc(-c2ccco2)o1 (centres undefined) | inactive | –
N#Cc1ccccc1Cn1c(=O)n(-c2ccc(CC(=O)NCc3ccco3)cc2)c(=O)c2sccc21 | inactive | –
Cc1ccc(C)c(CN2C(=O)c3ccccc3S(=O)(=O)c3ccc(C(=O)N4CCN(c5ccccn5)CC4)cc32)c1 | inconclusive: -0.939% [signal inhibitor] | –
CCc1cccc(N2C(=O)N(CC(=O)NCc3cccc(OC)c3OC)c3ccccc3S2(=O)=O)c1 | inconclusive: 4.42% [signal inhibitor] | –
COc1cccc(OC)c1OCCNC[C@@H]1CSc2ccccc2O1 | inactive | –
COC(=O)c1ccc(OCC2c3cc(OC)c(OC)cc3CCN2C(=O)C(C)C)cc1 (centres undefined) | inactive | –
